Patent US20080293646A1, “MACROLIDES” (Pfizer Inc, priority 2007, published 2008)

Experiments:
S. pyogenes ermB = test: microbe, parasite or virus in culture; type: cell-based, Streptococcus pyogenes; settings: for MIC Range: S. pyogenes ermB, n=25 isolates; for MIC50 / MIC90: Streptococcus pyogenes
CYP3A = CYP3A (Homo sapiens, UniProt P08684); test: CYP3A time-dependent inhibition in human liver microsomes (midazolam probe)
Procedure: CYP3A is the major drug-metabolizing enzyme in human liver, catalyzing metabolism of an estimated 50% of all drugs. Inhibition of CYP3A can lead to drug-drug interactions. Most commercially available macrolides/ketolides are time-dependent inhibitors of CYP3A. Time-dependent inhibition (TDI) was assessed in vitro using human liver microsomes and a probe substrate for CYP3A activity (midazolam). Test compounds with lower Ki values and/or higher kinact and values have greater affinity for CYP3A and thereby greater potential for drug-drug interactions. […]
Secondary incubation: Secondary incubations containing midazolam (30 μMfinal) and NADPH-regenerating system (as described above for primary incubation) were carried out in triplicate in 100 mM KH2PO4, pH 7.4, at 37° C. open to air in a 0.7 mL total volume. […] The ratios of the peak area response of analyte (1′-hydroxymidazolam) to that of the internal standard were used for quantification.
The formation of 1′-hydroxymidazolam as a function of preincubation time and test compound concentration was determined. […] The natural log(Ln) of the percent remaining activity was plotted for each test compound concentration as a function of preincubation time, and the rate of inactivation (kobs) for each concentration was determined by calculating the slope of the linear portion of the percent remaining activity curve. […]

Row | SMILES | MIC Range (S. pyogenes ermB) | MIC50 (S. pyogenes ermB) | MIC90 (S. pyogenes ermB) | fold improvement in MIC90 over telithromycin (S. pyogenes ermB; ermB-containing S. pyogenes isolates) | fold increase in Ki in the CYP3A TDI assay compared to Comparative Examples A and B (CYP3A)
1 | CC[C@H]1OC(=O)[C@H](C)C(=O)[C@H](C)[C@@H](O[C@@H]2O[C@H](C)C[C@H](N(C)C)[C@H]2O)[C@](C)(OC)C[C@@H](C)C(=O)[C@H](C)[C@H]2N(C3CN(Cc4c(O)cnc5cccnc45)C3)C(=O)O[C@]12C [Example 1, 3-Descladinosyl-11,12-dideoxy-6-O-methyl-3-oxo-12,11-(oxycarbonyl-(1-((3-hydroxy-[1,5]-naphthyridin-4-yl)methyl)-azetidin-3-yl)-imino)-erythromycin A Fumarate] | ≦0.06-4 μg/mL | 1 µg/mL | 2 µg/mL | 16 fold | approximately 10 fold
2 | CC1(C)S[C@@H]2[C@H](NC(=O)[C@H](N)c3ccc(O)cc3)C(=O)N2[C@H]1C(=O)O [amoxicillin] | – | 0.0078 µg/mL (≈ 0.0213 µM) | 0.0078 µg/mL (≈ 0.0213 µM) | – | –
3 | CC[C@H]1OC(=O)[C@H](C)[C@@H](O[C@H]2C[C@@](C)(OC)[C@@H](O)[C@H](C)O2)[C@H](C)[C@@H](O[C@@H]2O[C@H](C)C[C@H](N(C)C)[C@H]2O)[C@](C)(O)C[C@@H](C)C(=O)[C@H](C)[C@@H](O)[C@]1(C)O [erythromycin] | – | > 64 µg/mL | > 64 µg/mL | – | –
4 | CC[C@H]1OC(=O)[C@H](C)C(=O)[C@H](C)[C@@H](O[C@@H]2O[C@H](C)C[C@H](N(C)C)[C@H]2O)[C@](C)(OC)C[C@@H](C)C(=O)[C@H](C)[C@H]2N(CCCCn3cnc(-c4cccnc4)c3)C(=O)O[C@]12C [telithromycin] | ≦0.06-64 μg/mL | 8 µg/mL (≈ 9.85 µM) | 32 µg/mL (≈ 39.4 µM) | – | –

In brackets after ≈: the same amount, converted by molar mass. Where a name gives a salt, the structure may show the parent alone.
